Test results published in PubChem BioAssay (NCI).
Where “and” joins values, the source holds several entries; their conditions need not be identical. Identical values can stand only once.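 Test compounds were applied to cells in 96-well plates for 48 hours at 5 doses. GI50: concentration for 50% inhibition of growth. TGI marks complete inhibition of growth.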

System: NCI-H322M lung
Test: NCI-60 cell line screen, 48 h

First: COC(=O)C1OC(O[C@H]2CC[C@]3(C)[C@H]4CC=C5[C@@H]6CC(C)(C)CC[C@]6(C(=O)OC6OCC(O)C(O)C6OC6OC(C)C(OC7OCC(O)C(O)C7O)C(OC7OCC(O)(CO)C7O)C6O)[C@H](O)C[C@@]5(C)[C@]4(C)CC[C@H]3C2(C)C)C(O)C(O)C1O (stereo not given in full)
Second: CC(C)C1=CC(=O)[C@@](C)(C2[C@H](O)C[C@@]3(C)[C@@H]4CC=C5[C@@H](CC[C@@H](OC6OCC(O)C(O)C6OC6OC(C)C(O)C(O)C6O)C5(C)C)[C@]4(C)C(=O)C[C@]23C)O1 (stereo not given in full)
The TGI of the first is lower: 6.2 µM for the first, > 100 µM for the second.

`Cc1cc(S(=O)(=O)Nc2n[nH]c(N)n2)c(Cl)cc1Cl` and `O=c1[nH]c(NCc2ccc(Cl)cc2)nc2nc[nH]c12` cannot be ordered by TGI: > 10 µM for the first, > 100 µM for the second.

Compared with `CC1OC(OC2C(O[C@H]3CC[C@@]4(C)C(=CC[C@H]5[C@@H]6C[C@@H]7O[C@]8(CC[C@@H](C)CO8)[C@@H](C)[C@@H]7[C@@]6(C)CC[C@@H]54)C3)OC(CO)C(O)C2O)C(O)C(O)C1O` (stereo not given in full), `COC(=O)C1(SC)C2CCC3C2CCC31` (stereo not given) is higher in TGI: 5.21 µM for the first, > 100 µM for the second.

First: COc1ccc(-c2csc(NC(=O)CN3CCN(c4cc5c(cc4F)c(=O)c(C(=O)O)cn5C4CC4)CC3)n2)cc1
Second: COc1ccc(CCN2CCC(CN(C)Cc3cnn(-c4ccccc4)c3)CC2)cc1
The TGI of the first is higher: > 100 µM for the first, 45.8 µM for the second.

`CCc1c(-c2ccc(OC)cc2)oc(OC)c(C)c1=O` and `Cc1ccc2nc(-c3ccc(C(C)(C)C)cc3)oc(=O)c2c1` cannot be ordered by TGI: > 100 µM for the first, > 100 µM for the second.

`COc1cc(C(C)O)c[n+](CCC2CNc3ccccc32)c1` (stereo not given) and `Cc1ccc(C2NC(=O)c3ccccc3N2)c(C)c1` (stereo not given) cannot be ordered by TGI: > 100 µM for the first, > 100 µM for the second.

`CCOc1ccc2c(c1)c(CC(=O)O)cn2C` and `CC(C)=CC(=O)c1[nH]c2ccccc2c1CC(=O)NCCc1cncn1C` cannot be ordered by TGI: > 100 µM for the first, > 100 µM for the second.

`Cn1cc(C2=C(Nc3ccccc3)C(=O)NC2=O)c2ccccc21` and `O=c1[nH]c(=O)n(COCc2ccccc2)cc1Nc1ccc(Br)cc1` cannot be ordered by TGI: > 25 µM for the first, > 100 µM for the second.

`OC1COC2CC(Nc3ccccn3)OC12` (stereo not given) and `C[C@]12CC(c3ccccc3O1)C(C(=O)Nc1nc(C34CC5CC(CC(C5)C3)C4)cs1)C(=O)N2` (stereo not given in full) cannot be ordered by TGI: > 100 µM for the first, > 100 µM for the second.

`O=C(Cn1c(C(=O)c2ccccc2)nc2ccccc21)c1ccccc1` and `CCOC(=O)c1c(SC(=O)c2ccc(OC)cc2)n(-c2ccccc2)c(=S)n(-c2ccccc2)c1=O` cannot be ordered by TGI: > 100 µM for the first, > 100 µM for the second.

`O=C(NO)NCCCl` and `Cc1ccc(NC(=O)CCc2n[nH]c(=S)o2)cc1` cannot be ordered by TGI: > 100 µM for the first, > 100 µM for the second.

`NC(=O)CC(N=Cc1nc(-c2ccccc2)oc1O)C(=O)O` (stereo not given) and `C=C=CC(NC(=O)c1ccccc1)(C(=O)O)C(F)(F)F` (stereo not given) cannot be ordered by TGI: > 100 µM for the first, > 100 µM for the second.

Compared with `N#CC(C#N)=C/C=C(\Sc1ccc(F)cc1Cl)c1ccc(Cl)cc1`, `O=C1CSC(c2ccc(Cl)cc2Cl)N1c1ccc(Oc2ccc(Cl)cc2)c(Cl)c1` (stereo not given) is 11-fold higher in TGI: 8.76 µM for the first, 98.3 µM for the second.

First: C#CC(O)/C=C/CCCCCCC#CC/C=C\CC#CCCCCCCCCC(O)C#C (stereo not given)
Second: O=C(O)/C=C/c1c[nH]c(=O)[nH]c1=O
The TGI of the first is lower: 28.4 µM for the first, > 500 µM for the second.

Going from `Cc1nc2ccccc2nc1N=Nc1ccccc1` to `C(=Nc1ccc(-c2nc3ccccc3s2)cc1)c1ccc[nH]1`, the TGI falls from > 100 µM to 72.1 µM.

Compared with `COc1cccc(N2C(=O)C3C4C=C5c6ccccc6N(c6ccccc6)C5(C3C2=O)[C@H]2C(=O)N(c3cccc(OC)c3)C(=O)[C@@H]42)c1` (stereo not given in full), `Cc1ccc(C2(c3ccc(F)cc3)OC(=O)c3ccccc32)c(O)c1` (stereo not given) is lower in TGI: > 100 µM for the first, 26.2 µM for the second.

Going from `O=C1C(c2c(O)[nH]c3ccc(Br)cc23)=Nc2ccc(Br)cc21` to `Cc1cccc2c3c(sc12)C(c1ccc(F)cc1)C(C#N)=C(N)O3` (stereo not given), the TGI falls from 70.1 µM to 17.5 µM (4-fold).

`COC(=O)Nc1nc2ccc(S(=O)(=O)N3CCOCC3)cc2[nH]1` and `CC(=O)OC1=CC2(OC(C)=O)CC(C)(C)C1C1C(=O)C=CC(=O)C12` (stereo not given) cannot be ordered by TGI: > 100 µM for the first, > 100 µM for the second.

Compared with `CC12CCC(CC1)C(C)(C)O2`, `O=C1OC(=O)C2C3C=CC(C12)C1C2C=CC2C31` (stereo not given) is higher in TGI: 92.9 µM for the first, > 100 µM for the second.

Going from `COc1ccc(-c2csc(NC(=O)CN3CCN(c4cc5c(cc4F)c(=O)c(C(=O)O)cn5C4CC4)CC3)n2)cc1` to `COc1ccc(CCN2CCC(CN(C)Cc3cnn(-c4ccccc4)c3)CC2)cc1`, the GI50 rises from 3.72 µM to 16.3 µM (4.4-fold).

`Cn1cc(C2=C(Nc3ccccc3)C(=O)NC2=O)c2ccccc21` and `Cc1nc2ccccc2nc1N=Nc1ccccc1` cannot be ordered by GI50: > 25 µM for the first, 30.9 µM for the second.

First: N#CC(C#N)=C/C=C(\Sc1ccc(F)cc1Cl)c1ccc(Cl)cc1
Second: Cc1cccc2c3c(sc12)C(c1ccc(F)cc1)C(C#N)=C(N)O3 (stereo not given)
The GI50 of the first is 5.9-fold higher: 2.85 µM for the first, 0.481 µM for the second.

In the case of `CN(C)c1ccc(/C=C/c2sc3ccccc3[n+]2C)cc1`, the TGI is reported as 31.1 µM and 36.8 µM.
